Source: PubChem BioAssay AID504332 (National Center for Advancing Translational Sciences (NCATS), 2011)
The campaign covered roughly 350,000 compounds. About 31,000 (8.9%) were called active. The inconclusive results got no clear call from the source; some entries with a clear call stand among them for comparison. Calls come from the whole dose curve; as a rule, active = well fitted inhibition curve with a large enough effect; inconclusive = small, poorly fitted or top-dose-only effect; inactive = no such curve, though single readings can be large or run the other way. Potencies beside an inconclusive call are fits to weak or partial responses and may not hold up.

Target: Histone-lysine N-methyltransferase EHMT2 (Homo sapiens) (UniProt Q96KQ7)
Assay: qHTS Assay for Inhibitors of Histone Lysine Methyltransferase G9a; note: nearly all actives have a fitted effect of over 75% in size
Settings: G9a H3K9 monomethylation, AlphaScreen, 2 h; activity, negative = inhibition: at 59 µM (top of the series) unless noted
In short: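 G9a (20 nM) preincubated 15 min RT with compounds, then 500 nM biotinylated H3K9 peptide and 20 uM SAM added; 2 h RT reaction. Monomethyl-H3K9 product detected by AlphaScreen with anti-H3K9me1 antibody, streptavidin donor and anti-rabbit IgG acceptor beads.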
% is set by controls: 0 for no effect and ±100 for the full control effect; potency is the fitted concentration of half-maximal effect; tags give direction and shape of the fitted curve.

UniProt Q96KQ7, sequence (Q96KQ7 whole entry, looked up): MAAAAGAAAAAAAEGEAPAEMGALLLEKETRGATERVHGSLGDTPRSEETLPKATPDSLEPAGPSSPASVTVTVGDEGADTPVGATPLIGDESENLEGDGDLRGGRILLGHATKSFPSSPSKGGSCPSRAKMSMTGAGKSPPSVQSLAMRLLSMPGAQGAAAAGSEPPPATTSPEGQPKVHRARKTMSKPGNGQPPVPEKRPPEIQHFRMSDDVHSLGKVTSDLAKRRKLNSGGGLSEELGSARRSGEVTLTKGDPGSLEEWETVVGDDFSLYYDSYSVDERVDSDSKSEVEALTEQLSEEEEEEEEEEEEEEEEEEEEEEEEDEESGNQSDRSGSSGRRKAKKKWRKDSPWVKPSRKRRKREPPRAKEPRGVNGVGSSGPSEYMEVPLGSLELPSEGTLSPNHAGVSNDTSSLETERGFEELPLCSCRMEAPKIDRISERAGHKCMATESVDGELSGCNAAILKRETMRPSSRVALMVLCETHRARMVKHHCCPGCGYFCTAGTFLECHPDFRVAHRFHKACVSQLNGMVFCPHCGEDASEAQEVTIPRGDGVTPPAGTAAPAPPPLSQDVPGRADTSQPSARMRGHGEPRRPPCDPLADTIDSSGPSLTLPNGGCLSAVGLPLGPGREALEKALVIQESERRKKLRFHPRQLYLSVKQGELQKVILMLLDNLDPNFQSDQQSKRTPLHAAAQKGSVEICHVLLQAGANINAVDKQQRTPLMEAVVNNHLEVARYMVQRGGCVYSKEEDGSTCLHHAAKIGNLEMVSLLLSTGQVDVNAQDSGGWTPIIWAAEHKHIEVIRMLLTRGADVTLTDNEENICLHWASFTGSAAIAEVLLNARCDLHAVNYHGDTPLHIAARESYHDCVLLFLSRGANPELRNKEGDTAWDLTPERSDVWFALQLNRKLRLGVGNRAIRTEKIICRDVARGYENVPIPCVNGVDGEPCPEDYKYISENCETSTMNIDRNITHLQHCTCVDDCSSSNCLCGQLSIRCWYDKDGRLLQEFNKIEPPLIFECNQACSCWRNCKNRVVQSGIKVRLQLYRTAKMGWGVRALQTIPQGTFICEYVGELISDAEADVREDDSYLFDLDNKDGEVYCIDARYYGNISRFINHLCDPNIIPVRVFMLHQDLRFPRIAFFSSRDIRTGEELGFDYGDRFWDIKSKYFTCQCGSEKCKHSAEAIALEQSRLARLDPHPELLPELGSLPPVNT

SMILES	activity, negative = inhibition	Potency
Cc1ccccc1Nc1ccc2nonc2c1[N+](=O)[O-]	inactive: -6.45% [at 102 µM]	
CCC(C)(C)n1nnnc1C(c1ccc2ncccc2c1)N1CCN(c2ccc(O)cc2)CC1 (stereo not drawn)		active: 10 µM
Cc1cccc(-n2nc([N+](=O)[O-])c(N3CCN(C(=O)c4ccco4)CC3)[n+]2[O-])c1		inconclusive: 44.7 µM [inhibitor, partial curve]
Cc1nn(CC(=O)Nc2nc3ccccc3s2)c(C)c1[N+](=O)[O-]	inactive: 11.1% [at 0.501 µM]	
COc1ccc(C2C(=O)N(C3CCCCCC3)CC(=O)N2Cc2ccccc2)cc1 (stereo not drawn)	inactive: -8.12%	
Fc1ccc(-c2ccc(CNCc3ccccn3)o2)cc1Cl		inconclusive: 50.1 µM [inhibitor, partial curve, poor fit]
Cc1ccc(/C=C/C(=O)Oc2ccc(C#N)cc2)o1		inconclusive: 44.7 µM [inhibitor, partial curve, poor fit]
COCCNC(=O)Cn1cc2c(n1)-c1c(oc(C(=O)N3CCCC3)c1C)CC2		inconclusive: 28.2 µM [inhibitor, partial curve, poor fit]
C[N+](C)(C)c1ccc(/C=N/Nc2nc(Cl)c(C#N)c(Cl)c2Cl)cc1		inconclusive: 3.55 µM [inhibitor, partial curve, poor fit]
CCOc1ccc(N=C/C=C/c2ccccc2)c(O)c1		active: 50.1 µM
O=C(CNc1ccc2ccccc2c1)NNC1=NCCC1		inconclusive: 3.55 µM [inhibitor, full curve, poor fit]
CCOC(=O)CN(C(=O)CNC(=O)c1cccs1)C(C(=O)NC1CCCC1)c1cccnc1 (stereo not drawn)		inconclusive: 39.8 µM [inhibitor, partial curve, poor fit]
CC(C)C1Cc2[nH]c(=O)c(C(=O)O)cc2CO1 (stereo not drawn)		inconclusive: 25.1 µM [inhibitor, single point]
Cc1ccc(C(=O)N2CCN=C2SCc2ccc([N+](=O)[O-])cc2)cc1		inconclusive: 89.1 µM [inhibitor, single point]
Cc1cc(C)cc(NC(=S)N=Nc2c(O)n(C)c3ccc(S(=O)(=O)N4CCOCC4)cc23)c1		inconclusive: 39.8 µM [inhibitor, full curve]
C/C(=N\Nc1nc2ccccc2[nH]1)c1cccs1		inconclusive: 79.4 µM [inhibitor, single point]
CCC(=O)N1CCN(c2nc3c(C)cccc3s2)CC1	inactive: -1.91%	
CC(=O)Nc1cccc(-n2c(=O)n(Cc3ccccc3)c(=O)c3[nH]cnc32)c1	inactive: 0.361% [at 102 µM]	
COc1ccc(OC(=O)CSc2nnc(-c3ccc(F)cc3)o2)cc1		inconclusive: 25.1 µM [inhibitor, partial curve, poor fit]
COc1ccc(C2CC(=O)c3c([nH]c(C(=O)OC(C)C)c3C)C2)cc1OC (stereo not drawn)		inconclusive: 89.1 µM [inhibitor, partial curve, poor fit]
Cc1ccc(/C=C/C(=O)NCc2ccccn2)o1		inconclusive: 39.8 µM [inhibitor, single point]
CN(C)c1ncc2nc(CCc3ccccc3)c(=O)n(-c3ccccc3)c2n1	inactive: -1.8% [at 12.7 µM]	
O=C(O)C1CCCC[C@H]1C(=O)Nc1ncc([N+](=O)[O-])s1 (stereo partly drawn)	inactive: -35% [at 12.7 µM]	

SMILES	activity, negative = inhibition	Potency
O=C(Nc1ccc(N2CCCC2)c(Cl)c1)c1cccnc1		active: 8.91 µM
CC(C)N1CC=C2C(C#N)=C(N)C(C#N)(C#N)C(c3ccccc3)C2C1 (stereo not drawn)	inconclusive: -65.8% [inhibitor]	
Cc1ccc(NC(=O)CCCN2C(=O)COc3ccc(C)cc32)c(C)c1	inactive: 1.09%	
NS(=O)(=O)c1ccc(O)c(N2C(=O)c3cccc4c(C(=O)c5ccccc5)ccc(c34)C2=O)c1		inconclusive: 79.4 µM [inhibitor, partial curve]
O=C(/C(=C/c1ccccc1Cl)c1ccccc1)N1CCOCC1		inconclusive: 6.31 µM [inhibitor, single point]
CCCCn1c(N)c(N(CC)C(=O)CSCc2c(C)noc2C)c(=O)[nH]c1=O		active: 44.7 µM
COC(=O)c1c(C)[nH]c(O)c1C=Nc1ccc(C(C)C)cc1		inconclusive: 31.6 µM [inhibitor, full curve, poor fit]
Cc1ccc2nc(SCC(=O)N3CCN(C(=O)c4ccco4)CC3)[nH]c2c1		inconclusive: 22.4 µM [inhibitor, single point]
COc1cc(NC(N)=S)c(OC)cc1Cl		inconclusive: 50.1 µM [inhibitor, partial curve, poor fit]
Cc1ccc([N+](=O)[O-])c(Oc2ncnc3c2oc2ccccc23)c1	inactive: -15.9%	
CCc1c(C)sc(NC(=O)CN2CCN(C(=O)c3ccco3)CC2)c1C(=O)OC		active: 79.4 µM
COc1ccc(Nc2n[nH]c(N)c2C(N)=O)cc1	inactive: -33.5% [at 102 µM]	
COc1ccc(Nc2nc(CC(C)=O)ns2)cc1OC		inconclusive: 79.4 µM [inhibitor, single point]
Cc1ccc(NC(=O)C(C)Sc2nc(-c3ccccc3)cc(=O)[nH]2)cc1 (stereo not drawn)	inactive: 17.3% [at 102 µM]	
COc1cc(/C=C(\NC(=O)c2cc(OC)c(OC)c(OC)c2)C(=O)NC(C(=O)O)c2ccccc2)cc(OC)c1OC (stereo not drawn)		inconclusive: 56.2 µM [inhibitor, partial curve, poor fit]
O=C(/C=C/c1ccco1)NCC1COc2ccccc2O1 (stereo not drawn)	inconclusive: -52.3% [inhibitor] [at 12.7 µM]	
CCc1ccccc1NC(=O)c1cccc(NC(=O)/C=C/c2ccco2)c1		inconclusive: 14.1 µM [inhibitor, partial curve, poor fit]
CC(C)n1c(=O)n(CC(=O)NCC2CCCO2)c(=O)c2c3c(sc21)COC(C)(C)C3 (stereo not drawn)	inactive: -1.64% [at 102 µM]	
CC(C)(C)c1ccc(-c2n[nH]c(=S)n2CC2CCCO2)cc1 (stereo not drawn)		active: 7.94 µM
CC(C)(C)OC(=O)N1CCCC1C(=O)NCCc1ccccc1 (stereo not drawn)	inconclusive: -111% [inhibitor]	
COc1ccc(CCNC(=O)c2ccc3c(SCC(=O)O)c4c(nc3c2)CCCC4)cc1OC		inconclusive: 89.1 µM [inhibitor, single point]
CCc1ccc(C(=O)CSc2nc(-c3ccccc3)nc3c2CCCC3)cc1	inactive: 18.6%	
COc1cccc(CNS(=O)(=O)c2ccc3c(c2)N(C(C)=O)CCO3)c1		inconclusive: 0.891 µM [inhibitor, partial curve, poor fit]

SMILES	activity, negative = inhibition	Potency
NC(=O)c1ccc(NS(=O)(=O)c2ccc3ccccc3c2)cc1		inconclusive: 50.1 µM [inhibitor, partial curve, poor fit]
CCC1Sc2ccc(S(=O)(=O)CCC(=O)NCc3ccc(C)o3)cc2NC1=O (stereo not drawn)		inconclusive: 17.8 µM [inhibitor, single point]
Cc1cnc(CNC(=O)C2CCC(=O)N(Cc3ccc(Cl)cc3)C2)[nH]1 (stereo not drawn)		inconclusive: 31.6 µM [inhibitor, partial curve, poor fit]
CCCCCCCCCCOC(=O)c1csc2nnsc12		inconclusive: 39.8 µM [inhibitor, single point]
CC(C(=O)Nc1nc2ccccc2s1)n1cc([N+](=O)[O-])cn1 (stereo not drawn)		inconclusive: 22.4 µM [inhibitor, single point]
CN(C)c1ccc(CNC(=O)CN2C(=O)CCn3nc(-c4cn(C)c5ccccc45)cc32)cc1		inconclusive: 20 µM [inhibitor, partial curve, poor fit]
COc1ccc(NC(=S)NC2CC3CCC(C2)N3Cc2ccco2)cc1 (stereo not drawn)	inactive: 11.5% [at 102 µM]	
Cc1cc2oc(C(=O)Nc3sc4c(c3C(=O)NCc3ccccc3)CCCC4)cc(=O)c2cc1C	inactive: -4.82%	
COc1cc(CN2CCCC(C(=O)c3ccc(C(C)(C)C)cc3)C2)cc(OC)c1O (stereo not drawn)		inconclusive: 56.2 µM [inhibitor, single point]
O=C(Nc1ccc2oc(-c3ccccc3)nc2c1)c1ccc2c(c1)OCCO2		inconclusive: 70.8 µM [inhibitor, partial curve, poor fit]
Cc1cccc(N2C(=S)N=C(Nc3c(C)cccc3C)C23CCOC(C)(C)C3)c1 (stereo not drawn)		inconclusive: 89.1 µM [inhibitor, single point]
COc1cc(CNCc2cc(OC)ccc2OC)cc(OC)c1		active: 25.1 µM
Cc1ccc(Nc2ccc(S(=O)(=O)N3CCOCC3)cc2[N+](=O)[O-])cc1C		inconclusive: 25.1 µM [inhibitor, single point]
COCCn1c(CN2CCN(c3ccc(F)cc3)CC2)nc2c1c(=O)n(C)c(=O)n2C		inconclusive: 79.4 µM [inhibitor, partial curve, poor fit]
O=C(NCCCO)C(=O)Nc1c2c(nn1-c1ccccc1)CSC2		active: 10 µM
CCCN(CCC)C(=O)c1cn(CC)c2ccc(S(=O)(=O)N3CCCCC3)cc2c1=O	inactive: 37.3%	
Fc1ccc(C2=NNC(=NCc3ccccc3)SC2)cc1F		inconclusive: 56.2 µM [inhibitor, partial curve]
CN(C)S(=O)(=O)N(CC(=O)NCc1ccccc1)c1ccccc1	inactive: 2.49%	
Cc1cc(CNC(=O)COC(=O)c2ccc(Cl)c(N)c2)cc(C)c1O		inconclusive: 50.1 µM [inhibitor, partial curve, poor fit]
CCOc1cc(N2CCOCC2)c(OCC)cc1NC(=O)c1cc(C)nc2ccccc12	inactive: -23.5% [at 102 µM]	
COc1ccccc1N1CCN(CC(O)COCCOc2ccc(Br)cc2)CC1 (stereo not drawn)	inactive: -10.2%	
O=C(O)C1CC=CCC1C(=O)Nc1cccc(F)c1 (stereo not drawn)		inconclusive: 10 µM [inhibitor, partial curve, poor fit]
